Measurements published in PubChem BioAssay AID2675 (National Center for Advancing Translational Sciences (NCATS), 2010).
Hit rate of the full screen: of about 280,000 compounds, about 100 (0.036%) were called active. The shares of active, inactive and inconclusive entries below differ from those in the screen. Calls come from the whole dose curve; as a rule, active = well fitted inhibition curve with a large enough effect in the signal ratio, with a control signal flat (not every such curve was filed as active); inconclusive = small, poorly fitted or top-dose-only effect, or effect the other way, or a change in a side signal; inactive = no such curve, though single readings can be large or run the other way; the % refers to the signal ratio. A potency beside an inconclusive call is a rough fit, not a confirmed value. A note “side channel” means that the fit belongs to a control or component signal, not to the main read-out.

target: Muscleblind-like protein 1 (Homo sapiens) (UniProt Q9NR56); test: qHTS Assay for Inhibitors of MBNL1-poly(CUG) RNA binding; settings: TR-FRET MBNL1-His/biotin-(CUG)12 binding, 665/545 ratio; activity change, negative = inhibition: at 57.5 µM (top of the series)
Procedure, shortened: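 TR-FRET between His-tagged MBNL1 and biotin-(CUG)12 RNA, detected with Tb anti-His antibody (0.055 ng/ul) and streptavidin-XL665 (5 nM), 60 min at room temperature. Compounds titrated 92 nM to 58 uM; 665/545 nm ratio normalized to buffer and complex controls.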
% is set by controls: 0 for no effect and ±100 for the full control effect; potency is the fitted concentration of half-maximal effect; tags give direction and shape of the fitted curve or compound fluorescence and quenching.

Sequence of UniProt Q9NR56 (Q9NR56 whole entry, looked up): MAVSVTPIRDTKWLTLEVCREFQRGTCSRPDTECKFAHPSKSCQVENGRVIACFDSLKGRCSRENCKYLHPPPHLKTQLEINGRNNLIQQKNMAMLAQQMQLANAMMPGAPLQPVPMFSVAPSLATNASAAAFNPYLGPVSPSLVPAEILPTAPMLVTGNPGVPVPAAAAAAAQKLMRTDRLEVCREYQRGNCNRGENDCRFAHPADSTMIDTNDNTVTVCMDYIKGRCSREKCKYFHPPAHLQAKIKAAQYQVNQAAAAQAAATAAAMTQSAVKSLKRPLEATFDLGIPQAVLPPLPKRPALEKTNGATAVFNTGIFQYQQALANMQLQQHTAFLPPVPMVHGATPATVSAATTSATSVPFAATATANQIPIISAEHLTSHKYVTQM

| Structure (SMILES) | Potency | activity change, negative = inhibition |
| --- | --- | --- |
| O=C(NC(Cc1ccccc1)C(=O)O)/C(=C/c1ccc([N+](=O)[O-])cc1)NC(=O)c1ccccc1Br (stereo unspecified) | inconclusive: 17.8 µM [quencher, side channel, partial curve] | – |
| O=C1S/C(=C\c2cccs2)C(=O)N1c1ccc(O)cc1 | – | inactive: 11.1% |
| Cc1ccn2cc(-c3cc4ccccc4oc3=O)nc2c1 | inconclusive: 3.98 µM [quencher, side channel, partial curve] | – |
| COc1ccc(CNC(=O)c2cnn3c(C(F)F)cc(C)nc23)cc1 | inconclusive: 39.8 µM [quencher, side channel, single point] | – |
| CC(C)CNC(=O)C1CCN(c2ccc(S(=O)(=O)N3CCOCC3)cc2[N+](=O)[O-])CC1 | inconclusive: 28.2 µM [quencher, side channel, partial curve] | – |
| Cc1ccc(C(=O)/C=C2\NCC(C)NC2=O)cc1 (stereo unspecified) | inconclusive: 15.8 µM [quencher, side channel, partial curve] | – |
| O=C(NC(c1ccccc1)c1ccccc1)c1ccc(=O)[nH]n1 | – | inactive: 0.502% |
| O=C(N/N=C/c1ccco1)c1cc(-c2ccc(Cl)s2)[nH]n1 | inconclusive: 20 µM [quencher, side channel, partial curve] | – |
| Cc1ccc(/C=N/NC(=O)c2ccc3nc[nH]c3c2)o1 | inconclusive: 12.6 µM [quencher, side channel, partial curve] | – |
| COc1ccc(CSc2nnnn2C)cc1[N+](=O)[O-] | inconclusive: 17.8 µM [quencher, side channel, single point] | – |
| O=C(CSc1ccc(-c2ccccn2)nn1)Nc1ccc(F)c(F)c1 | – | inactive: 30.8% |
| CNC(=S)N1N=C(c2cccs2)CC1c1ccc(OC)cc1 (stereo unspecified) | inconclusive: 12.6 µM [quencher, side channel, partial curve] | – |
| CCOC(=O)c1c(C)[nH]c(C=Nc2ccc(OC)cc2)c1O | inconclusive: 11.2 µM [quencher, side channel, partial curve, poor fit] | – |
| CCOc1cc(C2C(C(=O)OC(C)C)=C(C)NC3=C2C(=O)CCC3)cc([N+](=O)[O-])c1O (stereo unspecified) | inconclusive: 28.2 µM [quencher, side channel, partial curve] | – |
| COc1cc(/C(C#N)=C/c2ccccc2)c([N+](=O)[O-])cc1OC | inconclusive: 3.16 µM [quencher, side channel, single point] | – |
| O=C1SC(SC(=Nc2ccccc2)Nc2ccccc2)C(=O)N1c1ccccc1 (stereo unspecified) | – | inactive: 17.4% |
| CCn1ccnc1CN1CCCC(C(=O)c2ccc3cc(OC)ccc3c2)C1 (stereo unspecified) | – | inactive: 16.7% |
| COC(=O)c1cc2ccc(OC)c(OC)c2c(=O)s1 | inconclusive: 11.2 µM [quencher, side channel, partial curve] | – |
| CN(C)C(CNC(=O)c1ccc([N+](=O)[O-])cc1Cl)c1ccco1 (stereo unspecified) | inconclusive: 15.8 µM [quencher, side channel, partial curve] | – |
| O=C(O)CCCCCn1c(SCc2cc(=O)n3ccccc3n2)nc2ccsc2c1=O | inconclusive: 14.1 µM [quencher, side channel, partial curve] | – |
| O=C(Cc1ccc([N+](=O)[O-])cc1)NC(C(=O)O)C(O)c1cccc([N+](=O)[O-])c1 (stereo unspecified) | inconclusive: 14.1 µM [quencher, side channel, partial curve] | – |

| Structure (SMILES) | Potency | activity change, negative = inhibition |
| --- | --- | --- |
| COn1c(=O)c(-c2ccccc2)[n+]([O-])c2ccccc21 | inconclusive: 15.8 µM [quencher, side channel, partial curve] | – |
| NNC(=O)c1[nH]c2ccc([N+](=O)[O-])cc2c1-c1ccccc1 | inconclusive: 15.8 µM [quencher, side channel, partial curve] | – |
| Cn1c(=O)c2ncn(CC(=O)N=Nc3c(O)[nH]c4ccccc34)c2n(C)c1=O | inconclusive: 2.24 µM [quencher, side channel, full curve] | – |
| CCCN(CCC)C(=O)/C=C/c1cccc([N+](=O)[O-])c1 | inconclusive: 28.2 µM [quencher, side channel, single point] | – |
| COc1ccc2nc(SCC(=O)N3CCN(c4ccc(F)cc4)CC3)c(C#N)cc2c1 | inconclusive: 35.5 µM [quencher, single point] | – |
| Cc1ccc(/C=N/Nc2ccc(Cl)c(C(=O)O)c2)s1 | inconclusive: 3.16 µM [quencher, side channel, partial curve, poor fit] | – |
| COc1cc(N2C(=O)C=CC2=O)c(OC)cc1Cl | – | inactive: 3.55% |
| O=[N+]([O-])c1ccc(N=Cc2sc3ccccc3c2O)cc1 | inconclusive: 22.4 µM [quencher, side channel, partial curve] | – |
| Cc1ccc(/C=N/NC(=O)c2c[nH]c3ccccc23)s1 | inconclusive: 15.8 µM [quencher, side channel, partial curve] | – |
| CCS(=O)(=O)CCSc1nc2ccccc2o1 | – | inactive: 9.12% |
| O=C(N/N=C/c1cccc(Oc2ccccc2)c1)c1cc[n+]([O-])cc1 | inconclusive: 28.2 µM [quencher, side channel, partial curve] | – |
| O=C(COC(=O)c1ccccc1NC(=O)c1ccco1)Nc1ncc(Cl)cc1Cl | inconclusive: 35.5 µM [fluorescent, side channel, single point] | – |
| Cc1ccc(NC(=O)COc2ccccc2)cc1Cl | – | inactive: -3.3% |
| COc1cccc2cc(-c3cc(=O)oc4ccc(OCC(C)=O)cc34)oc12 | inconclusive: 1.78 µM [quencher, side channel, full curve] | – |
| O=C1CSC(c2ccccc2[N+](=O)[O-])N1c1ccc(O)cc1 (stereo unspecified) | inconclusive: 20 µM [quencher, side channel, partial curve] | – |
| O=C(O)c1ccc(C(=O)c2ccc3c(c2)C(=O)N(CC2CCCO2)C3=O)cc1 (stereo unspecified) | inconclusive: 14.1 µM [quencher, side channel, partial curve] | – |
| Cc1cc(C(=O)N/N=C/c2cc(Cl)cc([N+](=O)[O-])c2O)c2ccccc2n1 | inconclusive: 39.8 µM [quencher, single point] | – |
| CCCCC1=CC2=C(c3ccco3)C(=O)C(C)(OC(=O)c3ccc(OC)cc3)C(=O)C2=CN1Cc1ccc2c(c1)OCO2 (stereo unspecified) | inconclusive: 31.6 µM [fluorescent, side channel, single point] | – |
| CCCc1c(CC)c(=N)c2ccccc2n1C | inconclusive: 0.562 µM [quencher, side channel, single point] | – |
| CC(=O)Nc1ccc(C(=O)OCc2ccc(F)cc2)cc1 | – | inactive: -3.86% |
| Cc1ccccc1C(=O)NNC(=S)NC(=O)c1ccccc1 | – | inactive: 1.92% |

| Structure (SMILES) | Potency | activity change, negative = inhibition |
| --- | --- | --- |
| COCCNC(=O)Cn1cc(/C=C(\C#N)C(=O)NC2CCCC2)c2ccccc21 | inconclusive: 7.08 µM [quencher, side channel, partial curve] | – |
| COc1ccc2nc(C)cc(SCC(=O)N/N=C/c3ccc(O)c(O)c3)c2c1 | inconclusive: 35.5 µM [quencher, side channel, single point] | – |
| CN(C)CCCNc1oc(/C=C/c2ccccc2)nc1C#N | inconclusive: 22.4 µM [quencher, side channel, partial curve] | – |
| Cc1ccc2cc(CCNC(=O)c3c(-c4ccccc4Cl)noc3C)c(=O)[nH]c2c1 | inconclusive: 7.08 µM [quencher, side channel, single point] | – |
| O=C(CN1CCN(Cc2ccc(Cl)cc2)CC1)N/N=C/c1c[nH]c2ccccc12 | – | inactive: 16.4% |
| O/N=C/c1ccc2cccc(O)c2n1 | inconclusive: 39.8 µM [quencher, side channel, single point] | – |
| CC1(C)Cc2ccccc2C(C(=O)c2ccccc2)=N1 | – | inactive: 2.74% |
| CCN1CCN(C(=O)c2cc3c(=O)n4ccccc4nc3s2)CC1 | inconclusive: 25.1 µM [quencher, partial curve] | – |
| COc1ccc(-c2nnc(NC(=O)CSc3ccc(Cl)cc3)s2)cc1OC | – | inactive: -1.71% |
| O=C(c1ccccc1)N1CCC(c2nc(-c3ccc(S(=O)(=O)NCC4CCCO4)cc3)no2)CC1 (stereo unspecified) | – | inactive: 0.982% |
| Cc1ccc(C2=NN(Cc3nnc(-c4ccccc4)o3)C(=O)SC2)cc1 | inconclusive: 20 µM [quencher, side channel, single point] | – |
| COc1ccc(OC)c(/C=N\NC(=O)c2ccc(=O)n(C)c2)c1 | inconclusive: 15.8 µM [quencher, side channel, partial curve] | – |
| Oc1ccc(-c2nc3cnccn3c2Nc2ccc3c(c2)OCCO3)cc1 | inconclusive: 20 µM [quencher, side channel, partial curve] | – |
| CC1=C([N+](=O)[O-])C(c2ccc(Cl)cc2)NC(=O)N1 (stereo unspecified) | inconclusive: 28.2 µM [quencher, side channel, partial curve] | – |
| N#C/C(=C\c1cccc([N+](=O)[O-])c1)C(=O)Nc1cccnc1 | inconclusive: 14.1 µM [quencher, side channel, partial curve] | – |
| CN(C)C(=S)c1ccc2ccccc2n1 | – | inactive: -10.5% |
| CCN1CCN(c2ccc(N=Cc3ccc(O)cc3O)cc2)CC1 | inconclusive: 39.8 µM [quencher, side channel, single point] | – |
| Cc1cc[n+](-c2nc([O-])sc2/C=N/Nc2ccc([N+](=O)[O-])cc2)cc1 | inconclusive: 7.94 µM [quencher, side channel, full curve] | – |
| Nc1cc2nsnc2cc1Br | inconclusive: 17.8 µM [quencher, side channel, partial curve] | – |
